The values that follow come from article PMC4336329 (PLoS ONE, 2015).

Among all 310,000 compounds or so, about 2,200 (0.71%) showed an effect of 50% or more. The effect is printed as a negative number. The list shows a part of the results.

This assay deals with human ether-à-go-go-related gene (hERG) potassium channel (human, UniProt Q12809). The assay can be described thus: primary screen, population patch clamp on CHO cells stably expressing hERG.
Chain of human ether-à-go-go-related gene (hERG) potassium channel (Q12809 whole entry, looked up): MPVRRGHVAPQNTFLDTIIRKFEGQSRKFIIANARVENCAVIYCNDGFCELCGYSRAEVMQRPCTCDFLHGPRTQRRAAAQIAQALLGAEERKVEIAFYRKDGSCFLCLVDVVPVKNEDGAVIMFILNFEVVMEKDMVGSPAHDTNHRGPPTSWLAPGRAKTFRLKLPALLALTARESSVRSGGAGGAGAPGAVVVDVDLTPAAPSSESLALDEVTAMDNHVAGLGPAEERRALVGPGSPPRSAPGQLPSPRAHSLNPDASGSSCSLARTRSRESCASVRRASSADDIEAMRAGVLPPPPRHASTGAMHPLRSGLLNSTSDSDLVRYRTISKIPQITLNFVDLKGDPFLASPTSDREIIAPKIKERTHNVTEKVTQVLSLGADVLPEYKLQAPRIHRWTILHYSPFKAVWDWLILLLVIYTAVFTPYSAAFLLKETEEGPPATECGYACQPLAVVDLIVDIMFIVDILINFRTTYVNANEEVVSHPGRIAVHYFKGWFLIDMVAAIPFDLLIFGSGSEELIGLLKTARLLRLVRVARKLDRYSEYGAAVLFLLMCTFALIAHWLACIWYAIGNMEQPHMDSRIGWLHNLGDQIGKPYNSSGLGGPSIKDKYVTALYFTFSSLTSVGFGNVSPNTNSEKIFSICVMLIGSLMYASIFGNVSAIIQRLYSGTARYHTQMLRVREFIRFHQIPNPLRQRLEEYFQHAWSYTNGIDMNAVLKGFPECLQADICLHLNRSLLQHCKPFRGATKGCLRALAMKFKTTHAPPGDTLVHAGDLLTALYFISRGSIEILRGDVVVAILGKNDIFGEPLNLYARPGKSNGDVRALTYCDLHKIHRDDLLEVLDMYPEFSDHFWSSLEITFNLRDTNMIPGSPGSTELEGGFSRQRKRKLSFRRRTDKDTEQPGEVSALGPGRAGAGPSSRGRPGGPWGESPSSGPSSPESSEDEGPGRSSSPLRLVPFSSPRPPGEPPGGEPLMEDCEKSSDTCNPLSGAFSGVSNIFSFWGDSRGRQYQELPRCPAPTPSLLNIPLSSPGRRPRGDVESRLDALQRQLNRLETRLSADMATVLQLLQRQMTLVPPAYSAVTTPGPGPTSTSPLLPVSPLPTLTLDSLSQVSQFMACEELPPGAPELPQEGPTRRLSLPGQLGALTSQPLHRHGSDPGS
For the molecule `O=C(Nc1cc(F)cc(F)c1)c1ccc(NCCc2ccccc2)c([N+](=O)[O-])c1`, the “hERG current change (%, negative = inhibition) at 1uM” value was 9.2%. The same measure for `Cc1cc(NC(=O)CCC(=O)N(c2ccccc2)C(C(=O)NC2CCCC2)c2cccs2)no1` (stereo not shown): 13.9%; for `COc1ccccc1N1CCN(C(=O)C(C)NC(=O)c2ccco2)CC1` (stereo not shown): 6.25%; for `COc1cc(/C=N/S(=O)(=O)CCc2ccccc2)ccc1O`: 7.5%.

Turning to `Cc1cccc(NC(=S)N/N=C2\CC(C)(C)Oc3ccc(O)cc32)c1`, the “hERG current change (%, negative = inhibition) at 1uM” value amounted to 6.99%.

As for `Cc1ccc(-n2nc(C)c3c2OC(N)=C(C#N)C3c2ccccc2F)cc1` (stereo not shown), the “hERG current change (%, negative = inhibition) at 1uM” value stood at 7.35%.

For `CC(C)(C)C1CCC(OCC(O)CN2CCN(Cc3ccccc3)CC2)CC1.Cl` (stereo not shown), the “hERG current change (%, negative = inhibition) at 1uM” value stood at 13.2%. The same measure for `CC(C)NC(=O)c1cc(-n2cnnc2)ccc1Cl`: 12.6%. The same measure for `CN(Cc1ccccc1)C(=S)Nc1ccc2nc3n(c(=O)c2c1)CCCCC3`: -21.8%; for `O=C1c2cc(S(=O)(=O)N(CCO)CCO)ccc2-c2ccc(S(=O)(=O)N(CCO)CCO)cc21`: 14.9%; for `COc1cc(CNC(C)(C)C)cc(Br)c1OCc1cccs1.Cl`: 6.82%. The same measure for `CCOC(=O)Cn1c(=O)oc2cc(S(=O)(=O)N3CCCc4ccccc43)ccc21`: 1.84%.

Regarding `Cc1ccc(C(=O)NCC(=O)N2CCN(c3ncccn3)CC2)s1`, the “hERG current change (%, negative = inhibition) at 1uM” value is listed as -6.12%. Then `CCCC1C(c2ccccc2)C(C#N)(C#N)C2(C#N)CC1(N)NC2=O` (stereo not shown), with 4.83%; and `CCOc1ccc(-c2cccc(NS(=O)(=O)c3cc([N+](=O)[O-])ccc3Cl)c2)nn1`, with 13.3%. For the molecule `COCc1c(C(=O)Nc2ccc(Cl)cc2F)oc2ccccc12`, the “hERG current change (%, negative = inhibition) at 1uM” value is 4.3%. Then `O=C(OCC(=O)N1CCN(C(=O)c2ccco2)CC1)c1cn(-c2ccccc2)nc1-c1ccccc1`, with -23.1%; and `CCn1nnnc1SCC(=O)Nc1sc(C)c(C)c1C#N`, with 7.23%. The same measure for `CC(C)(C)C(=O)/C(=C/c1ccncc1)n1cncn1`: -7.97%. Regarding `CCOc1ccc(NC(=O)Cc2ccccc2)c([N+](=O)[O-])c1`, the “hERG current change (%, negative = inhibition) at 1uM” value was 14.2%. Then `Br.Brc1ccc(C2=Nn3c(nnc3-c3cccnc3)SC2)s1`, with 10.8%; and `O=[N+]([O-])c1cccc(-c2nnc(CNC3CC3)o2)c1`, with -21%; and `CC(=O)c1cnc(Nc2ccc(C)cc2)s1`, with 3.59%. The same measure for `COc1ccc(CNc2c(CO)cnc3c2cnn3C)cc1`: 8.01%; for `CCOP(=O)(Cc1ccc(C#N)o1)OCC`: 16.5%; for `O=C(c1ccc(O)cc1)c1ccc(C(=O)O)c(C(=O)O)c1`: 17.7%. For `Cc1ccc2c(C)c(C(=O)N3CCC(O)(c4ccccc4)CC3)oc2c1C`, the “hERG current change (%, negative = inhibition) at 1uM” value is recorded as 15.5%. Then `O=C(CSc1nccn(-c2ccc3c(c2)OCCO3)c1=O)Nc1ccccc1`, with 13.7%; and `COc1ccc(/C=C/C(=O)OCC(=O)c2c(C)[nH]c3ccccc23)cc1OC`, with 0.968%; and `CCc1sc(C(=O)Nc2ccccc2N2CCOCC2)cc1C`, with -1.09%.

On to `O=C(NCc1ccncc1)c1nc(-c2cccs2)no1`, for which the “hERG current change (%, negative = inhibition) at 1uM” value is recorded as -0.652%. The same measure for `CCCCc1ccc(-c2nc(NC(=O)C3C4CCC(O4)C3C(=O)O)sc2C)cc1` (stereo not shown): 11.9%; for `CC(c1ccco1)N(C(=O)COc1ccc(Cl)cc1Cl)c1ccccn1` (stereo not shown): 1.64%.

For the molecule `COc1cc(OC)cc(C(=O)N2CCC(C(=O)NCCc3ccccc3)CC2)c1`, the “hERG current change (%, negative = inhibition) at 1uM” value is 14.6%. Then `COc1ccc(C2NC(=O)NC(C)=C2C(=O)OCc2ccc3c(c2)OCO3)cc1OC` (stereo not shown), with 9.69%; and `COc1ccc(OC)c(S(=O)(=O)N(C)CC(=O)O)c1`, with -1.6%.

Consider `CCc1c(C)sc(NC(=O)CN2CCN(C(=O)c3ccco3)CC2)c1C(=O)OC`, for which the “hERG current change (%, negative = inhibition) at 1uM” value was -7.19%. As for `COC(=O)CSc1nc(N2CCOCC2)c2c(c1C#N)CCCC2`, the “hERG current change (%, negative = inhibition) at 1uM” value came out at 15.2%. On to `CCCc1cc(=O)oc2c(C)c(O)c(CN3CCCCC3)cc12`, for which the “hERG current change (%, negative = inhibition) at 1uM” value turned out to be 4.25%. Then `O=C(Nc1ccccc1)N1CCCC(c2nc(-c3cccs3)no2)C1` (stereo not shown), with -1.07%. Then `Cc1ccccc1S(=O)(=O)c1c(C)cc(C)n(CC(C)C)c1=O`, with 8.89%; and `c1ccc2c(-c3nn[nH]n3)cccc2c1`, with 9.54%; and `CCCCc1nnc(NC(=O)CSc2nc(O)c(-c3ccccc3)c(=O)[nH]2)s1`, with 11.7%. The same measure for `Cc1cc(=O)n2[nH]c(SCc3ccccc3)nc2n1`: 9.29%; for `O=C(CSC1=NCCN1)NC1CCCCCC1`: -4.6%. Take `CS(=O)(=O)c1ccc2nc(NC(=O)C3CC(=O)N(c4ccccc4)C3)sc2c1` (stereo not shown): the “hERG current change (%, negative = inhibition) at 1uM” value is given as 0.138%.

`COc1ccc(/C=N\NC(=O)c2ccccc2Br)cc1COc1ccc(F)cc1`: the “hERG current change (%, negative = inhibition) at 1uM” value worked out at 4.15%.

With `COc1cc([N+](=O)[O-])ccc1NC(=O)N1CCCCCC1`, the “hERG current change (%, negative = inhibition) at 1uM” value is recorded as 5.44%. Then `CC(C)Oc1ccc(-c2nn(-c3ccccc3)cc2/C=c2\sc3ncnn3c2=O)cc1`, with 5.65%. Turning to `Cc1cccc2sc(NC(=O)Cn3cccc3)nc12`, the “hERG current change (%, negative = inhibition) at 1uM” value was found to be 4.91%. Then `O=C(N1CCN(c2ccccc2)CC1)C(F)(F)C(F)F`, with -6.71%; and `CCOc1ccc(NC(=O)CSc2nnc(C3CC3)n2C)cc1`, with 13.3%; and `COc1ccccc1-n1cnc2cc(NCc3cccs3)ccc21`, with -5.29%. Then `CCOC(=O)C1CCCCN1C(=O)CCn1nnnc1CN1CCOCC1` (stereo not shown), with 14.3%; and `Cc1ccc(S(=O)(=O)NNC(=O)c2cc(C)cs2)cc1`, with 13.7%; and `Clc1cc(Sc2ccc(Br)cc2)nnc1-c1ccccc1`, with -0.175%. As to `CCCn1c(=O)c2ccccc2n2c(SCc3c(C(=O)OCC)oc4ccccc34)nnc12`, the “hERG current change (%, negative = inhibition) at 1uM” value stood at 8.38%. The same measure for `CC/C(=N\NC(=O)CSCc1ccccc1Br)c1ccc2c(c1)OCCO2`: 1.06%; for `COc1ccccc1CCC(=O)OCC(=O)Nc1c(C)nn(-c2ccccc2)c1C`: 5.32%; for `O=C(Nc1ccc(OC(F)(F)F)cc1)C1CC(c2ccc(F)cc2)=NO1` (stereo not shown): 23.1%. Then `CCOCN(C(=O)CCl)c1c(C)cccc1CC`, with 0.214%; and `O=S(=O)(c1cccc2cccnc12)N1CCN(c2ccccn2)CC1`, with 8.58%.

As for `CC(C)C(c1nnnn1Cc1ccccc1)N1CCC(C(N)=O)CC1` (stereo not shown), the “hERG current change (%, negative = inhibition) at 1uM” value is on record as 5.62%. The same measure for `COc1ccc(NC(=O)c2ccco2)cc1NC(=O)c1cccc(OC(C)C)c1`: -8.96%. Then `COC(=O)c1ccc(COc2ccc(CNCc3ccc(Cl)cc3)cc2)cc1`, with 10.1%; and `COc1ccc(C(=O)C2CCCN(C(=O)c3cccc(Cl)c3F)C2)cc1OC` (stereo not shown), with 14.4%; and `Cc1cccc(N(CC(=O)Nc2ccc(F)cc2)S(C)(=O)=O)c1`, with 9.67%. The same measure for `COC(=O)Cn1c(=NC(=O)c2nc3ccccc3s2)sc2cc(S(C)(=O)=O)ccc21`: -0.94%; for `CCCCOc1ccc(CN2CCC(O)CC2)cc1`: 6.42%; for `CC(C)c1ccc(S(=O)(=O)N2CCC(C(=O)N3CCC3)CC2)cc1`: 8.37%. Turning to `CCN(CC)c1ccc(NC(=O)Cn2c(C(C)NC(=O)c3ccccc3)nc3ccccc32)cc1` (stereo not shown), the “hERG current change (%, negative = inhibition) at 1uM” value turned out to be 16.8%.

Take `Cc1ccc(O)c(O)c1`: the “hERG current change (%, negative = inhibition) at 1uM” value is recorded as 11%. With `CCN(CC)S(=O)(=O)c1ccc(C(=O)NCc2ccc(C)cc2)cc1`, the “hERG current change (%, negative = inhibition) at 1uM” value was -0.676%.

In the case of `CC#CC[N+](C)(C)CCCCCCCC.[Br-]`, the “hERG current change (%, negative = inhibition) at 1uM” value is -4.53%. Then `O=[N+]([O-])c1ccc(COc2ccc(-c3[nH]ncc3-c3ccc(Cl)cc3)c(O)c2)cc1`, with 1.44%; and `Cc1c(Br)c([N+](=O)[O-])nn1CC(=O)NCc1cccs1`, with -0.373%. With `O=C(C1COc2ccccc2O1)N1CCN(c2ccccc2F)CC1` (stereo not shown), the “hERG current change (%, negative = inhibition) at 1uM” value is given as 10.2%.

On to `CCCNC(=O)c1cc(SC)ccc1Cl`, for which the “hERG current change (%, negative = inhibition) at 1uM” value was 3.96%. Then `O=C1Nc2ccccc2C(O)(C(=O)NCc2ccc3c(c2)OCO3)N1c1ccccc1` (stereo not shown), with 10.1%; and `CCOC(=O)C(=O)C1C(=O)Nc2ccccc21` (stereo not shown), with 15.6%. Then `CS/C(=N/S(=O)(=O)c1ccc(C)cc1)c1ccccc1`, with 2.36%; and `O=C(c1cc2n(n1)C(C(F)(F)F)CC(c1ccc(Cl)cc1)N2)N1CCCC1` (stereo not shown), with 8.26%.

Take `COc1cc(C)c(S(=O)(=O)N2CCOCC2)cc1C`: the “hERG current change (%, negative = inhibition) at 1uM” value was 13.5%.

Take `CCCC1CCC(=NNC(=O)CNc2ccc(OC)cc2)CC1` (stereo not shown): the “hERG current change (%, negative = inhibition) at 1uM” value came out at 10.8%. Then `Cc1ccccc1OCCC(=O)OCC(=O)Nc1ccc2[nH]c(=O)[nH]c2c1`, with 10.2%. The same measure for `COc1ccc(N=CC2=C(O)CC(C)(C)CC2=O)cc1OC`: 11.8%; for `O=C(COc1ccccc1)Nc1nc2ccccc2[nH]1`: 15.2%. The same measure for `COc1ccc(C(=O)NCCSc2ccccc2)cc1OC`: 4.42%; for `COC(=O)c1nn(-c2ccccc2)c(Sc2ccccc2)c1/C=N/O`: 10.6%.

For `Cc1cccc(NC(=O)C2CC(=O)N(c3ccccc3)C2)c1C` (stereo not shown), the “hERG current change (%, negative = inhibition) at 1uM” value is 9.76%. The same measure for `COC(=O)C1=C(c2ccc(F)cc2F)C[C@@H]2CC[C@H]1N2C(=O)NCCOc1ccccc1`: 9.02%.
